Results: PubChem BioAssay AID1345082 (National Center for Advancing Translational Sciences (NCATS), 2018)
Among all 94,000 compounds or so, about 4,000 (4.3%) were called active. The inconclusive results got no clear call from the source; some entries with a clear call stand among them for comparison. Calls come from the whole dose curve; as a rule, active = well fitted inhibition curve with a large enough effect; inconclusive = small, poorly fitted or top-dose-only effect; inactive = no such curve, though single readings can be large or run the other way. A potency beside an inconclusive call is a rough fit, not a confirmed value.

Test: Cytotoxic Profiling in NIH 3T3 Cell Line of Diverse Libraries Using Quantitative High-Throughput Screening; note: nearly all actives have a fitted effect of over 55% in size
Conditions: NIH 3T3 viability, CellTiter-Glo ATP luminescence, 48-72 h; activity change, negative = cytotoxicity: at 96.7 µM (top of the series) unless noted; series mostly up to 96.7 µM
In short: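 Luminescent ATP readout (CellTiter-Glo, 10 min RT) after 48 or 72 hr compound exposure of NIH 3T3 cells seeded at 400 cells/well in 1536-well format; quantitative HTS.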
% is set by controls: 0 for no effect and ±100 for the full control effect; potency is the fitted concentration of half-maximal effect; tags give direction and shape of the fitted curve.

Compound	activity change, negative = cytotoxicity	Potency	outcome
CC1=C[C@@H](CNC(=O)CCCC(=O)O)[C@H](C(C)C)C[C@H]1Cc1nc2c(C)cccc2[nH]1	inactive: -26.8% [at 174 µM]		
NCc1ccccc1-c1cccc(Cl)c1		inconclusive: 100 µM [inhibitor, partial curve, poor fit]	
COc1cccc(-c2ccc(C(=O)N3CCC(NC(=O)C(C)(C)C)CC3)cc2)c1		active: 39.8 µM	
COCCN1CCOc2nc(-c3cccc(C)c3)ncc2C1=O		inconclusive: 100 µM [inhibitor, partial curve, poor fit]	
CC(C)c1noc([C@H]2C[C@@H]3NCCCCCCNC(=O)[C@@H]3C2)n1	inactive: -13.9%		
O=C(c1nc(-c2ccc(F)cc2)c2ccccn12)N1CCN(c2ncccn2)CC1		inconclusive: 44.7 µM [inhibitor, partial curve, poor fit]	
CCN1C(=O)CCc2cc(NC(=O)c3ccc(F)cc3)ccc21		inconclusive: 50.1 µM [inhibitor, partial curve, poor fit]	
O=C(NC1CCN(c2cc(-c3ccc(F)cc3)[nH]n2)C1)c1ccccc1 (stereo unspecified)		inconclusive: 70.8 µM [inhibitor, single point]	
COc1ccc(CCC(=O)N2CCC(Cc3nncn3C(C)C)C2)cc1 (stereo unspecified)		inconclusive: 89.1 µM [inhibitor, single point]	
O=C1NC2(CCN(Cc3ccsc3)C2)OCc2ccccc21 (stereo unspecified)	inactive: -19.8% [at 138 µM]		
c1ccc(-c2noc(-c3cncnc3NCc3cccs3)n2)cc1			inactive
CC(C)(C)OC(=O)N1CC(NCc2cccc(-c3cccs3)c2)C1	inactive: -27.8%		
CC(CCc1ccccc1)NC(=O)CC(c1cccc2c1OCO2)c1c[nH]c2ccccc12 (stereo unspecified)		inconclusive: 35.5 µM [inhibitor, partial curve, poor fit]	
OCC1CN(Cc2cc(Br)ccc2F)CC12CCNCC2 (stereo unspecified)		inconclusive: 50.1 µM [inhibitor, partial curve, poor fit]	
CC(C)CCN1CCn2c(nn(-c3cccc(Cl)c3)c2=O)C1		inconclusive: 79.4 µM [inhibitor, partial curve, poor fit]	
CCN1c2cc(C(=O)Nc3ccc(C(=O)OC)cc3)ccc2C(=O)N2CCCCCC21 (stereo unspecified)		inconclusive: 50.1 µM [inhibitor, partial curve, poor fit]	
COc1ccc(C(=O)N2CCN(c3nc4ncccc4o3)CC2)cc1	inactive: -14.9% [at 138 µM]		
O=C(c1ccccc1)N1CCC(Oc2ccccc2)C1 (stereo unspecified)	inactive: -24.8%		
Cc1ccc(C(=O)N2CC[C@H]3NC(=O)N(c4ccc(F)cc4)C(=O)[C@H]32)cc1			inactive [at 174 µM]
COc1ccccc1CC(=O)N1CCCc2ncc(C(=O)Nc3cccc(C(F)(F)F)c3)cc21		inconclusive: 44.7 µM [inhibitor, partial curve, poor fit]	
O=C(NCCc1ccccn1)[C@@H]1C[C@@H](c2ccc(F)cc2)N(CCOc2ccccc2)C1		inconclusive: 89.1 µM [inhibitor, partial curve, poor fit]	
COc1ccc(-c2ccnc3nc(CC(C)C)nn23)cc1		inconclusive: 5.01 µM [inhibitor, full curve, poor fit]	

Compound	activity change, negative = cytotoxicity	Potency	outcome
O=C(c1cccc(O)c1)N1CC=C(c2cnc3cnc(-c4ccccc4)cn23)CC1		inconclusive: 89.1 µM [inhibitor, partial curve, poor fit]	
CCc1cccc(NC(=O)C2CCN(C(=O)c3ncn4c3COC(c3ccc(OC)cc3)C4)CC2)c1 (stereo unspecified)	inactive: -2.08%		
CC(=O)Nc1ccc(CN2CCC3(CC2)CC(=O)c2ccc(Cl)cc2O3)cc1		inconclusive: 12.6 µM [inhibitor, full curve, poor fit]	
CCc1noc(-c2cccn3c(CNC(=O)Cc4cccc(F)c4)nnc23)n1	inactive: -26.4%		
Cc1ccnc(NC(=O)C2c3ccccc3C(=O)N(CC(C)C)C23CCCC3)c1 (stereo unspecified)		inconclusive: 70.8 µM [inhibitor, single point]	
COc1ccc(CN2CCN(c3cc(N(C)C)ncn3)CC2CCO)c(C)c1C (stereo unspecified)		inconclusive: 50.1 µM [inhibitor, partial curve, poor fit]	
O=c1[nH]c(C2CCCN(Cc3cccnc3)C2)nn1-c1ccc(Cl)cc1 (stereo unspecified)		inconclusive: 44.7 µM [inhibitor, partial curve]	
C[C@@H](NCc1ccc(F)cc1)c1onc(-c2ccc(Cl)cc2)c1C(=O)O	inactive: -16.3% [at 138 µM]		
CCOc1ccc(CN2CCCCC23Cc2ccccc2CNC3=O)cc1 (stereo unspecified)	inactive: -23.3%		
O=C1COc2ccc(NCCc3ccccn3)nc2CN1Cc1ccc(C(F)(F)F)cc1		inconclusive: 44.7 µM [inhibitor, partial curve, poor fit]	
CCc1noc([C@@H]2CC(F)(F)CN2C(=O)c2coc(C)n2)n1	inactive: -9.12%		
Cc1nc(N2CCCC(Cn3ccnc3)C2)c2sccc2n1 (stereo unspecified)		inconclusive: 79.4 µM [inhibitor, single point]	
CCOCCNC(=O)c1cc(-c2ccccc2F)nc2c1cnn2C		inconclusive: 89.1 µM [inhibitor, partial curve]	
COc1ccc(CN2CCc3nc(C(=O)Nc4ccccc4)oc3CC2)cc1		inconclusive: 63.1 µM [inhibitor, partial curve, poor fit]	
COc1ccc(-c2ccnc3nc(Cc4ccc(F)cc4)nn23)cc1OC		inconclusive: 10 µM [inhibitor, full curve, poor fit]	
CC(=O)c1ccc(NC(=O)NC[C@@H]2C=C(C)[C@H](CC(=O)N(C)Cc3cccnc3)C[C@H]2C(C)C)cc1		inconclusive: 50.1 µM [inhibitor, partial curve, poor fit]	
COc1ccccc1CN1C[C@@H]2C(C(=O)NCc3ccccc3)=NO[C@@H]2C1		inconclusive: 79.4 µM [inhibitor, partial curve]	
CC(C)(C)n1nnnc1C1CC2(CCOCC2)C(=O)N1CCc1c[nH]c2ccccc12 (stereo unspecified)		inconclusive: 70.8 µM [inhibitor, partial curve, poor fit]	
CC(C)c1noc(-c2cccn3c(CNC(=O)C(C)c4ccccc4)nnc23)n1 (stereo unspecified)	inactive: -21.8%		
Cc1cc(C2CC(C(=O)NCCc3ccccc3)CN(C(=O)NC(C)C)C2)ccc1F (stereo unspecified)		inconclusive: 44.7 µM [inhibitor, partial curve, poor fit]	
CCOc1ccc2c(n1)CCN(C(=O)C1CCC1)C2	inactive: -15.5%		
COc1cccc(CCC(=O)N2CCCN(c3cc(-c4ccc(Cl)cc4)[nH]n3)CC2)c1		active: 35.5 µM	

Compound	activity change, negative = cytotoxicity	Potency	outcome
COc1ccccc1Cn1c(=O)c(C(=O)NCc2cccc(Cl)c2)nc2cccnc21		inconclusive: 39.8 µM [inhibitor, partial curve, poor fit]	
CC1(C)C(=O)Nc2ccc(S(=O)(=O)N3CCC(c4noc(-c5ccccc5)n4)C3)cc21 (stereo unspecified)		inconclusive: 39.8 µM [inhibitor, partial curve]	
O=C(NCC(F)(F)F)C1CCN(C(=O)c2ccc(-c3cccs3)cc2)CC1		inconclusive: 50.1 µM [inhibitor, partial curve, poor fit]	
CSc1ccc(-c2ccc3c(c2)C(=O)N2CCN(C(=O)C4CCCCC4)C[C@@H]2C(=O)N3)cc1		inconclusive: 35.5 µM [inhibitor, partial curve, poor fit]	
Cc1cccc(S(=O)(=O)N2CCN(C3CCN(Cc4ccccn4)C3=O)CC2)c1 (stereo unspecified)	inactive: -30.2%		
Cc1cccc(C(=O)N2CCCC(c3nnnn3-c3ccccc3)C2)c1 (stereo unspecified)	inactive: -44%		
c1ccc2c(N3CCN(Cc4cc5n(n4)CCNC5)CC3)nsc2c1		inconclusive: 50.1 µM [inhibitor, partial curve, poor fit]	
O=C1CC(c2ccccc2)N(C(=O)CNS(=O)(=O)c2ccc3c(c2)CCC3)CCCCCN1 (stereo unspecified)	inactive: -27.1%		
CNC(=O)c1cc(C)nc2onc(C3CCN(C(=O)C4CC4)CC3)c12	inactive: -19.1%		
CC(C)c1ccc(N2C(=O)[C@@H]3C[C@@H](NC(=O)C4CCN(c5nccc(C(F)(F)F)n5)CC4)CCN3C2=O)cc1		inconclusive: 50.1 µM [inhibitor, partial curve, poor fit]	
O=C(NCCn1ccn2nc(-c3ccc(F)cc3)cc2c1=O)c1ccsc1	inactive: -11.3%		
C=CCN(C)C(=O)C[C@@H]1c2nc(NC(=O)c3cccc(F)c3)sc2C[C@@H]2[C@](C)(CO)[C@H](O)CC[C@]21C	inactive: -25.6%		
CCOC(=O)C[C@@H]1CCN(C(=O)c2ccccc2)C[C@@H]1CCN1CCC[C@H]1C(N)=O		inconclusive: 35.5 µM [inhibitor, partial curve, poor fit]	
O=C1[C@@H]2C[C@@H](CN2Cc2ccnc3ccccc23)Oc2ccccc2N1CC1CC1		inconclusive: 100 µM [inhibitor, partial curve, poor fit]	
CCCS(=O)(=O)N1C[C@@H](Oc2ccccc2)C[C@H]1C(=O)NC	inactive: -6.94%		
NCC(=O)N1Cc2ccccc2CC2(CCN(CC3CCCC3)CC2)C1		inconclusive: 70.8 µM [inhibitor, single point]	
O=C(C1CCOCC1)N1CCC2(CN[S+](=O)([O-])c3cnccc3O2)C1 (stereo unspecified)			inactive
Cc1noc(-c2cccc(F)c2)c1C(=O)NCc1ccc2c(c1)OCO2		inconclusive: 50.1 µM [inhibitor, partial curve, poor fit]	
CCN(CC)Cc1nc(C2(O)CCN(C3CCN(C(C)=O)CC3)CC2)cs1	inactive: -19.2% [at 174 µM]		
Cc1ccc(-c2cccc(CN3CCCC3C(=O)NC3CCC3)c2)cc1Cl (stereo unspecified)		active: 39.8 µM	
Cc1cc(C)c(CNC(=O)c2cc(-c3cnn(C)c3)cc3c2OCCN3C(C)C)c(=O)[nH]1		inconclusive: 89.1 µM [inhibitor, partial curve]	
Cc1ccccc1Oc1c(CCC(=O)NCC2CC2)c(C)nn1-c1ccc(F)cc1		active: 25.1 µM	
